Experimental findings from PMC3182262 are described below.

Results are given in words; binding and its absence hold for the method and conditions named. Binding seen in cells or lysates may run through a third protein. Sequences can lack the tags named with a protein.

Assay [1] addresses T1, TRAF2, expressed in HEK293T cells, Q12933.
T1 chain: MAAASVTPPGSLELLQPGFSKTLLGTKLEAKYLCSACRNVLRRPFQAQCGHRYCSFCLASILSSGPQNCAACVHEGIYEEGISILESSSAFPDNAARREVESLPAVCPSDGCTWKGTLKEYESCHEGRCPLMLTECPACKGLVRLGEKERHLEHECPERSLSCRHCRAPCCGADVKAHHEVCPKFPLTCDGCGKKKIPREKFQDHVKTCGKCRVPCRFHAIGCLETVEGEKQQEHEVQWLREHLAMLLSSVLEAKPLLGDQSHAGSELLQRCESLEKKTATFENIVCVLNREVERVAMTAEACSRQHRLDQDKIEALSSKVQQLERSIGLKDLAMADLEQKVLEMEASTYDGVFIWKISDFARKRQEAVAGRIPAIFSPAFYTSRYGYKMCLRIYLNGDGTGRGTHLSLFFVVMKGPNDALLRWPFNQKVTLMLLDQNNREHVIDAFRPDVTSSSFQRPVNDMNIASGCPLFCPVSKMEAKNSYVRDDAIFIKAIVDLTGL
The experiment in a line: co-IP; proteins co-expressed in HEK293T cells; TRAFs (TRAF6, TRAF6(C70A), TRAF2) pulled down from total lysates; western blotting. The note with it: remark: other sources report otherwise. (In general: Immunoblotting shows a protein as a band on a membrane.)

Assay [2] addresses T2, FLAG-TAK1, expressed in HEK293T cells, O43318.
T2 chain: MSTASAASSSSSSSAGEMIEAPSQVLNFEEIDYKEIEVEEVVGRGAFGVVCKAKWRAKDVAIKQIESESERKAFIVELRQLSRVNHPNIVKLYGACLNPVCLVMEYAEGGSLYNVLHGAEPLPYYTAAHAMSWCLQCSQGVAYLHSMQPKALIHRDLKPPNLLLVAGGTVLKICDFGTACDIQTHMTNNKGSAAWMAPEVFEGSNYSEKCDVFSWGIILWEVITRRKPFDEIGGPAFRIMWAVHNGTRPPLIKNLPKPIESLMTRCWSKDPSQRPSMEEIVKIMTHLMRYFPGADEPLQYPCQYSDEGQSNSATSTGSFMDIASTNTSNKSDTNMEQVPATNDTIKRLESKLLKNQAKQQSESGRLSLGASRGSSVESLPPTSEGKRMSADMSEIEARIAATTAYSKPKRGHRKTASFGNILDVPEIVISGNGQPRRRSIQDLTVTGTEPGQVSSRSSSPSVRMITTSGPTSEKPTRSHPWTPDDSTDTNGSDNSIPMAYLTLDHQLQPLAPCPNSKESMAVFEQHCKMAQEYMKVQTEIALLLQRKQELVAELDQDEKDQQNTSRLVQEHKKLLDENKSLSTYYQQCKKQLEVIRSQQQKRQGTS
The experiment in a line: co-IP; FLAG-TAK1 precipitated with a FLAG antibody from transfected HEK293T cells; western blotting; TRAF6 or TRAF2 co-expressed. Particulars: remark: other sources report otherwise.

B1: HA-TTRAP, transiently expressed in HEK293T cells, O95551 1-362 (protein)
chain: MELGSCLEGGREAAEEEGEPEVKKRRLLCVEFASVASCDAAVAQCFLAENDWEMERALNSYFEPPVEESALERRPETISEPKTYVDLTNEETTDSTTSKISPSEDTQQENGSMFSLITWNIDGLDLNNLSERARGVCSYLALYSPDVIFLQEVIPPYYSYLKKRSSNYEIITGHEEGYFTAIMLKKSRVKLKSQEIIPFPSTKMMRNLLCVHVNVSGNELCLMTSHLESTRGHAAERMNQLKMVLKKMQEAPESATVIFAGDTNLRDREVTRCGGLPNNIVDVWEFLGKPKHCQYTWDTQMNSNLGITAACKLRFDRIFFRAAAEEGHIIPRSLDLLGLEKLDCGRFPSDHWGLLCNLDIIL
Turning to B1, in assay [1], the binding entry is “no binding”.

B2: TRAF2, expressed in HEK293T cells, Q12933 1-501 (protein)
chain: T1 chain
B2: the binding entry in assay [2] was “no binding”.
